{"source": "paper PMC6919601", "about": "“Identification of Plasmodium dipeptidyl aminopeptidase allosteric inhibitors by high throughput screening” (PLoS ONE, 2019)", "note": "“And” between values parts separate entries of the source, which are not always exact repeats. Equal entries are not always repeated. In all, about 110,000 compounds went through this assay and about 230 (0.21%) showed an effect of 50% or more. This is one part of the list.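 Note: 30 min substrate incubation versus DMSO and 10 µM JCP410 controls.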", "data": [{"molecular_target": "DPAP1 (Plasmodium falciparum, UniProt Q8IIJ9)", "sequence (Q8IIJ9 whole entry, looked up)": "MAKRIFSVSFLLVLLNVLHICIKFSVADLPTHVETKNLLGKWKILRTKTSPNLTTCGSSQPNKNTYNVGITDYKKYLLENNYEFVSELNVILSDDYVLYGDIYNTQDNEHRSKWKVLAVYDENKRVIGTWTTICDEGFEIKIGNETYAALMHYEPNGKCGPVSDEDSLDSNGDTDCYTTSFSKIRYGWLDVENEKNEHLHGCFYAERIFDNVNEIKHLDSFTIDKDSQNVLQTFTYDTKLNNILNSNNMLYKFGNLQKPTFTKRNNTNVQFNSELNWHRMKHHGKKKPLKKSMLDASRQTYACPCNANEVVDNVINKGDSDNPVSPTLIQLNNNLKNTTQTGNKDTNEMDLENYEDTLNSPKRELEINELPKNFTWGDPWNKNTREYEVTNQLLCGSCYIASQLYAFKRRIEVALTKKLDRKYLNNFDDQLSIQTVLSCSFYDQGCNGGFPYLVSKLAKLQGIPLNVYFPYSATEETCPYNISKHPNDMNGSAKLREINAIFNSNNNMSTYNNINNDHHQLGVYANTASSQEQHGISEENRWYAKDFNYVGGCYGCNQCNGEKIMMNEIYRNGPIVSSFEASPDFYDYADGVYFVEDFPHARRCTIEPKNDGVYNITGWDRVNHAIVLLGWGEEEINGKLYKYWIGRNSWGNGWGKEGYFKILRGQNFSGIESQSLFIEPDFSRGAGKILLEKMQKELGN", "test": "primary screen, percent inhibition; read by cleavage of a fluorogenic dipeptide substrate; higher = more effect of the substance", "design": "species or system P. falciparum D10 trophozoite lysates; single well", "values": [{"compound": "CO/N=C(\\C(=O)Sc1nc2ccccc2s1)c1csc(N)n1", "% Inhibition @ 10 uM": "7.24%"}, {"compound": "C=CCN1C(=O)N/C(=C/c2ccc(OCc3ccccc3C#N)c(OC)c2)C1=O", "% Inhibition @ 10 uM": "-5.7%"}, {"compound": "Cc1cc2c([nH]c3ccccc32)c(C)n1", "% Inhibition @ 10 uM": "6.5%"}, {"compound": "O=S(=O)(Nc1ccc(S(=O)(=O)Nc2cccc3ccccc23)cc1)c1ccc2c(c1)OCCO2", "% Inhibition @ 10 uM": "-0.473%"}, {"compound": "CCCNC(=O)C1CCCN(c2nc3ccc(OCC)cc3s2)C1", "note": "(stereo not shown)", "% Inhibition @ 10 uM": "0.137%"}, {"compound": "Cn1c(=O)n(C)c2cc(/C=C3/NC(=O)N(Cc4ccccc4)C3=O)ccc21", "% Inhibition @ 10 uM": "-16%"}, {"compound": "c1ccc(-c2ccc(CNCCSc3nnnn3-c3ccccc3)o2)cc1", "% Inhibition @ 10 uM": "-8.57%"}, {"compound": "COc1ccc(-c2cn3nc(N4CCCCC4)sc3n2)cc1", "% Inhibition @ 10 uM": "-0.759%"}, {"compound": "COc1ccc(C(C(C(=O)c2ccco2)N2CCOCC2)N2CCOCC2)cc1", "note": "(stereo not shown)", "% Inhibition @ 10 uM": "-5.2%"}, {"compound": "N#CC1=C(N)Oc2[nH]nc(C(F)(F)F)c2C1c1ccccc1", "note": "(stereo not shown)", "% Inhibition @ 10 uM": "-2.77%"}, {"compound": "Cc1ccc(N2C(=O)c3ccccc3C2C#N)cc1Cl", "note": "(stereo not shown)", "% Inhibition @ 10 uM": "-0.69%"}, {"compound": "CCOc1ccc(CNCc2c(C(=O)O)n(Cc3ccc(F)cc3Cl)c3cc(OC)ccc23)cc1", "% Inhibition @ 10 uM": "2.06%"}, {"compound": "Cc1nc(C(=O)O)cc2c1[nH]c1ccccc12", "% Inhibition @ 10 uM": "2.26%"}, {"compound": "Cc1ccc(-n2nc3ccc(N)cc3n2)cc1", "% Inhibition @ 10 uM": "-4.21%"}, {"compound": "CCC(C)N(CCNCc1c(C(=O)O)n(Cc2ccccc2C)c2ccccc12)C1CCCCC1", "note": "(stereo not shown)", "% Inhibition @ 10 uM": "-3.21%"}, {"compound": "CC1=CC(c2ccccc2)n2nc(NC(=O)CCC(=O)O)nc2N1", "note": "(stereo not shown)", "% Inhibition @ 10 uM": "-5.28%"}, {"compound": "Cc1ccc(NC(=O)C23CC4CC(C2)CC(n2cnc(Br)n2)(C4)C3)c(C)c1", "% Inhibition @ 10 uM": "4.05%"}, {"compound": "COc1ccc(C(=O)OCC(=O)c2ccc(Br)cc2)cc1OC", "% Inhibition @ 10 uM": "10.4%"}, {"compound": "N#C/C(=C\\c1cccc2ccccc12)c1nc(-c2ccc(F)cc2)cs1", "% Inhibition @ 10 uM": "0.467%"}, {"compound": "COc1cccc(-c2ccc(C(=O)N[C@@H](CC(C)C)C(=O)NCC#N)cc2)c1", "% Inhibition @ 10 uM": "1.71%"}, {"compound": "CC(=O)Nc1c(C(=O)N(C)Cc2ccco2)cnn1-c1ccccc1Cl", "% Inhibition @ 10 uM": "7.02%"}, {"compound": "C=CCn1/c(=N\\C(=O)CC)n(Cc2ccccc2)c2ccccc21", "% Inhibition @ 10 uM": "-3.39%"}, {"compound": "COc1cc(NC(=O)Cc2ccc(Br)cc2)c(OC)cc1Cl", "% Inhibition @ 10 uM": "-10.2%"}, {"compound": "Nc1cc(=O)nc(SCC(=O)NCc2ccccc2)n1CCc1ccccc1", "% Inhibition @ 10 uM": "-2.5%"}, {"compound": "O=C1CCCC(O)=C1C(C1=C(O)CCCC1=O)c1ccc(O)cc1", "% Inhibition @ 10 uM": "5.54%"}, {"compound": "O=C(c1cc(-c2ccccc2)nc2ccc(Br)cc12)N1CCOCC1", "% Inhibition @ 10 uM": "-0.641%"}, {"compound": "O=C(Cn1c(=O)c2cccn2c2cccnc21)NC1CCCCCC1", "% Inhibition @ 10 uM": "-1.81%"}, {"compound": "CC1CCCCN1Cc1nc2c(c(=O)n(C)c(=O)n2C)n1CC(N)=O", "note": "(stereo not shown)", "% Inhibition @ 10 uM": "-5.1%"}, {"compound": "CCC(C)NC(=O)CN1C(=O)c2cccc3cccc1c23", "note": "(stereo not shown)", "% Inhibition @ 10 uM": "-7.93%"}, {"compound": "O=C(Nc1ccccn1)NC(C(F)(F)F)C(F)(F)F", "% Inhibition @ 10 uM": "-4.21%"}, {"compound": "CCOc1ccc(CNC(=O)C2CCCN(c3nnc(C)c4c(C)n(-c5ccc(C)cc5)nc34)C2)cc1", "note": "(stereo not shown)", "% Inhibition @ 10 uM": "-0.518%"}, {"compound": "Cc1ccc2nc3c(cc(C#N)c(=O)n3-c3nnc(SCc4ccc(Cl)cc4)s3)c(=O)n2c1", "% Inhibition @ 10 uM": "-0.551%"}, {"compound": "CC(CN(C)CC(O)c1ccccc1)c1ccccc1", "note": "(stereo not shown)", "% Inhibition @ 10 uM": "-1.75%"}, {"compound": "COc1ccc(CCNC(=O)c2c(O)nc3c(c2O)CCCC3)cc1OC", "% Inhibition @ 10 uM": "-2.17%"}, {"compound": "Cn1ncc(Cl)c1C(=O)N1CCc2ccccc2C1", "% Inhibition @ 10 uM": "0.866%"}, {"compound": "CC1(C)CC(=O)C2=C(C1)N(Cc1ccccc1Cl)C(=O)C2(NC(=O)c1ccccc1)C(F)(F)F", "note": "(stereo not shown)", "% Inhibition @ 10 uM": "-1.52%"}, {"compound": "CCCOc1ccc(Oc2nc(N(C)C)nc(N(C)C)n2)nn1", "% Inhibition @ 10 uM": "-7.8%"}, {"compound": "CC(=O)N1C(c2ccccc2)CC(=O)OC1c1ccc2c(c1)OCO2", "note": "(stereo not shown)", "% Inhibition @ 10 uM": "-1.33%"}, {"compound": "O=C(Cc1ccc(F)cc1)Nc1ccccn1", "% Inhibition @ 10 uM": "-4.66%"}, {"compound": "COc1ccc(NC(=O)CN(c2ccc(Cl)cc2Cl)S(=O)(=O)c2ccccc2)cc1OC", "% Inhibition @ 10 uM": "-5.92%"}, {"compound": "COc1cccc(C2C3=C(O)CC(C)(C)CC3=Nc3ccccc3N2C(C)=O)c1", "note": "(stereo not shown)", "% Inhibition @ 10 uM": "2.69%"}, {"compound": "CN(C)c1nc2c(c(=O)n(Cc3ccccc3)c(=O)n2C)n1Cc1ccccc1", "% Inhibition @ 10 uM": "0.35%"}, {"compound": "O=[N+]([O-])c1ccccc1S(=O)(=O)NCCO", "% Inhibition @ 10 uM": "7.77%"}, {"compound": "CC1C=CCC2C(=O)N(c3ccc(Cl)cc3O)C(=O)C12", "note": "(stereo not shown)", "% Inhibition @ 10 uM": "-2.78%"}, {"compound": "C#CC(C)(O)C1C=C2C(C)(C)CCCC2(C)n2c(=O)c3ccccc3c(=O)n21", "note": "(stereo not shown)", "% Inhibition @ 10 uM": "-0.637%"}, {"compound": "Cc1ccc(-n2nc(C)c3c(C)c(CCC(=O)NCCN4CCN(C)CC4)c(C)nc32)cc1C", "% Inhibition @ 10 uM": "0.747%"}, {"compound": "CSc1ccc(-c2ncnn2-c2cccc(Cl)c2C)cc1", "% Inhibition @ 10 uM": "-5.26%"}, {"compound": "CCOC(=O)c1c(C)c(-c2ccccc2)n(CC(=O)NCCN(C)C)c1C", "% Inhibition @ 10 uM": "3.32%"}, {"compound": "O=C1NC(=O)C(=Cc2cccn2-c2ccc(Br)cc2)C(=O)N1", "% Inhibition @ 10 uM": "0.208%"}, {"compound": "O=C(c1cnc2ccc(S(=O)(=O)N3CCOCC3)cc2c1O)N1CCN(c2ccccn2)CC1", "% Inhibition @ 10 uM": "-1.46%"}, {"compound": "COCCN(CCOC)CC(=O)Nc1cc(C)c2c(=O)oc3ccccc3c2n1", "% Inhibition @ 10 uM": "-1.27%"}, {"compound": "Cc1c(Cl)cccc1-n1c(C)cc(/C=C2/C(=N)N3C(=NC2=O)SN=C3S(C)(=O)=O)c1C", "% Inhibition @ 10 uM": "-7.21%"}, {"compound": "Cc1nn(-c2ccccc2)c(-n2cccc2)c1C(=O)NCc1cccnc1", "% Inhibition @ 10 uM": "1.8%"}, {"compound": "O=C(c1ccc2c(Cl)c3c(nc2c1)CCC3)N1CCN(c2ccccn2)CC1", "% Inhibition @ 10 uM": "5.77%"}, {"compound": "COc1ccc(CN(C)C(=O)c2cccc(C(=O)N(C)Cc3ccc(OC)cc3)c2)cc1", "% Inhibition @ 10 uM": "-2.5%"}, {"compound": "CC1CCc2cc(F)ccc2N1C(=O)COc1ccccc1F", "note": "(stereo not shown)", "% Inhibition @ 10 uM": "-2.82%"}, {"compound": "COc1ccc2c(C)cc(N3CCN(C/C=C/c4ccccc4)CC3)nc2c1", "% Inhibition @ 10 uM": "-11.5%"}, {"compound": "COc1ccc(C2(C(=O)NCc3ccccc3Cl)CCOCC2)cc1OC", "% Inhibition @ 10 uM": "4.11% and -1.88%"}, {"compound": "Cc1nn(C(C)C(=O)N2CCC(Cc3ccccc3)CC2)c(=O)c2nn(-c3ccccc3)c(C)c12", "note": "(stereo not shown)", "% Inhibition @ 10 uM": "-0.128%"}, {"compound": "Cc1nc(O)nc(O)c1S(=O)(=O)N1CCN(C(=O)c2cc(-c3ccc(Cl)cc3)[nH]n2)CC1", "% Inhibition @ 10 uM": "2.75%"}, {"compound": "Cc1ccccc1-c1cc(C(=O)N[C@@H](CC(C)C)C(=O)NCC#N)ccc1Cl", "% Inhibition @ 10 uM": "17%"}]}]}
